# Some of the results follow.
# B1: chr6:89938216:89938327:-|CDS|ENSG00000112182|unk|total|mutant (ssRNA)
# RNA: GGGAGUUCUACAGUCCGACGAUCUCUUCCAAGGAACGAUUUCCAGAUGAUGAUUAAAAUGCACAAGCUAACCUCAGAACAGUCCGAGUUUAUUCAUGAUGUCCGACGGCGCAGCAAGAACCGCAUCGCGGCCCAGCGCUGCCGCAACAGAGGAUUGAGCAUCA
# B2: chr7:130192614:130192715:-|CDS|ENSG00000146842|msi1|FALSE|unique (ssRNA)
# RNA: GGGAGUUCUACAGUCCGACGAUCUACAUGACCGACCUACGAACUUUGGAUACUUUUCUCAGAAGUGAAGAGGAGAAACAGCAUAGGGUUAAGCUGGGUACAUAUAUAUUUCUGUAUAUCUACUAUACAUAUUUUUGGUGUCAACAACAGAGGAUUGAGCAUCA
# B3: ENSG00000107863:be:win_4651|CDS|ENSG00000107863|bound_else_gene|NA|bound_elsewhere_windowed (ssRNA)
# RNA: GGGAGUUCUACAGUCCGACGAUCAGCACGUCUUCCCAGGCCUCCCUGGCAAGGUUUUCCAUGAAGAAAUCAACCAGUCCAGAAACGAAACAUAGCGAGUUUUUGGCCAACGUCAGCACCAUCACCUCAGAUUAUUCCACCACACAACAGAGGAUUGAGCAUCA
# B4: chr10:24583932:24584033:-|3pUTR|ENSG00000107863|unk|total|mutant (ssRNA)
# RNA: GGGAGUUCUACAGUCCGACGAUCAACAAAAGUGCCUCAUCAUAAAAAUACAGUUGGUUUUCCGGGUGCCAUAUUGUUAAAAUCCGAUAACUUACUUACAUUGAAUAAACGAAUGCGUUUUAUUGGUAACAGAUAUCAUUACAUCAACAGAGGAUUGAGCAUCA
# B5: ENSG00000198837:stop:overlap|stop_codon|ENSG00000198837|stop_codon|NA|stop_codon (ssRNA)
# RNA: GGGAGUUCUACAGUCCGACGAUCAGAUGCCCACUCCCAAGGCCAUUGACUGCCGAAAAUGUUUUGGAGCACCUCCAGAAUGCUAGAGACCUUAAGCUUCCCUCUCCAGCCUAGGGUGGGGAAGUGAGGAAGAAGGGAUUCUAGCAACAGAGGAUUGAGCAUCA
# B6: ENSG00000070961:be:win_1851|CDS|ENSG00000070961|bound_else_gene|NA|bound_elsewhere_windowed (ssRNA)
# RNA: GGGAGUUCUACAGUCCGACGAUCUAAUGGUGAGGCAAAAGUAUUCAGACCAAGGGACCGUGAUGAUAUUGUAAAAACUGUGAUUGAACCGAUGGCAUCAGAAGGCUUGAGAACCAUAUGUCUUGCAUUCAGAGAUUUUCCAGCCAACAGAGGAUUGAGCAUCA
# B7: chr19:17262551:17262990:-|CDS|ENSG00000130307|control|control|control (ssRNA)
# RNA: GGGAGUUCUACAGUCCGACGAUCUGCCAGCGAGAGGCAGCUCGCCUGGCCGAGAGGAAUGCCUGGCUCCGGCUGGCCCUGAGUAGCCGAGAGGAUGAGCUGGUCCGCACGCAGGCCUCCCUGGAGGCCAUCCGAGCUGAGAAGCAACAGAGGAUUGAGCAUCA
# B8: ENSG00000196396:stop:overlap|stop_codon|ENSG00000196396|stop_codon|NA|stop_codon (ssRNA)
# RNA: GGGAGUUCUACAGUCCGACGAUCCUACGGUCCUCACGGCCGGCGCUUACCUCUGCUACAGGUUCCUGUUCAACAGCAACACAUAGCCUGACCCUCCUCCACUCCACCUCCACCCACUGUCCGCCUCUGCCCGCAGAGCCCACGCAACAGAGGAUUGAGCAUCA
# B9: chr12:67313014:67313056:+|3pUTR|ENSG00000111530|msi1_unk|FALSE|overlapping (ssRNA)
# RNA: GGGAGUUCUACAGUCCGACGAUCUUUUUGUAGCAUUUAUUUCAGAAAUGUGUAUUUCCAUAAUCCAGAGGUUGUAAAACCACUAGUGUUUUAGUGGUUACAGCAACAUUUGAAAUGGAAACUAAAAGUUAGGAUUUUAUGGAGCAACAGAGGAUUGAGCAUCA
# B10: chr8:17969608:17969733:+|CDS|ENSG00000078674|unk|total|mutant (ssRNA)
# RNA: GGGAGUUCUACAGUCCGACGAUCUUCUAAUUUUGGAGAUUUUUCUCAGAAUAUCUCUACACCCAGUGAACAGCAGCAACCCUCCGCCCAGAAUUCUUCAGGAAAAACAGAAUAUAUGGCUUUUCCAAAACCUUUUGAAAGCAGCAACAGAGGAUUGAGCAUCA
# B11: chr17:57106211:57106324:+|CDS|ENSG00000121057|unk|FALSE|unique (ssRNA)
# RNA: GGGAGUUCUACAGUCCGACGAUCUCAUCCCAGGUGGUGGGGCCAGUGCAGGAGGAAGAGUAUGUAGCAGAGAAGUUGCCAAGUAGGUUCAUCGAGUCGGCUCACACAGAGCUGGCAAAGGACGAUGCGGCGCCAGCACCCCCACAACAGAGGAUUGAGCAUCA
# B12: chr11:26667019:26671251:-|three_prime_utr|ENSG00000148942|control|control|control (ssRNA)
# RNA: GGGAGUUCUACAGUCCGACGAUCACACACACGUGCAAUACACACACACACACACAAACUCCACAUACUUCUUGCCUACUUGUUAGUAGAUAUGUAUAGUUGCCAUUGCUAGAAGACAGGGAUGUCUGGUGCCUAUUUCUACUUCAACAGAGGAUUGAGCAUCA
# B13: ENSG00000107863:be:win_1351|CDS|ENSG00000107863|bound_else_gene|NA|bound_elsewhere_windowed (ssRNA)
# RNA: GGGAGUUCUACAGUCCGACGAUCGUCCAGAUACGGCAACGCAGUGUGUCCCAAGAAAGACUGGAAGAUUCUGUGCUAAUGAAGUAUUGUCCAAGAAGUGCAUCUCAAGGAGCACUGACGUCUCCAUCUGUUAGUUUUAGUAAUCAACAGAGGAUUGAGCAUCA
# B14: chr11:47420279:47420382:-|CDS|ENSG00000165916|unk|total|mutant (ssRNA)
# RNA: GGGAGUUCUACAGUCCGACGAUCAAACAGGGUGGACAUCCUGGACCCCGCCCUCCUCCGCUCGGGCCGCCUUGACCGCAAGACCGAGUUCCCGAUGCCCAAUGAGGAGGCCCGGGCCAGAAUCAUGCAGAUCCACUCCCGAAACAACAGAGGAUUGAGCAUCA
# Molecular target: MSI1 full-length (mouse, UniProt Q61474 1-362)
# Sequence of UniProt Q61474 (Q61474 whole entry): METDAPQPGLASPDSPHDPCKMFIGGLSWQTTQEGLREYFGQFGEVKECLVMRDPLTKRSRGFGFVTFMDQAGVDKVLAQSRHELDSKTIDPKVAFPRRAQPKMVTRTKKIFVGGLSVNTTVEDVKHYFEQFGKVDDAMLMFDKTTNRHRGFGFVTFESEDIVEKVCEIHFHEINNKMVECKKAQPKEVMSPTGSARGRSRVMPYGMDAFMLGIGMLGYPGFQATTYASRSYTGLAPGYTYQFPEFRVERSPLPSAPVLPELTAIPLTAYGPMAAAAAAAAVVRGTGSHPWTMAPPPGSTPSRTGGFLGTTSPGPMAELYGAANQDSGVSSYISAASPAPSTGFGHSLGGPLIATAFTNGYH
# Assay: nsRBNS (natural sequence RNA bind-n-seq); RBNS binding buffer (assumed for nsRBNS): 25 mM Tris pH 7.5, 150 mM KCl, 3 mM MgCl2, 0.01% Triton X-100, 500 ug/ml BSA, 20 U/ml SUPERase-In, 4 C; UNK is unkempt and MSI1 is Musashi-1; names of the RNAs are library labels; protein concentration not given here; high values mean tight binding
row,Binder,binding signal [enrichment R]
1,B1,0.331
2,B2,0.676
3,B3,0.452
4,B4,0.389
5,B5,2.04
6,B6,0.273
7,B7,0.412
8,B8,0.27
9,B9,0.408
10,B10,0.293
11,B11,4.47
12,B12,4.7
13,B13,4.82
14,B14,0.42

# Reference: paper PMC12136788
